The record followed here is the supplement of paper PMC8728848.

Test in all cases: glycan array binding signal (z-score within array); higher = stronger binding
What all share (details): glycan notation: IUPAC condensed, linker removed

Test [1] deals with Fuc(a1-3)[Gal(b1-4)]GlcNAc(b1-6)GalNAc. The gist of the method: (§1)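 The binding signal is a Z-score computed within each array. Data were drawn from 3228 arrays in the Consortium for Functional Glycomics database, restricted to those with a known protein sequence. Scores were averaged over arrays of the same protein sequence at different concentrations or buffers, and over linkers, and negative values can be taken as non-binding.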

In test [2] the test system is Fuc(a1-3)[Gal(b1-4)]GlcNAc(b1-6)[Gal(b1-3)GlcNAc(b1-3)]Gal(b1-4)Glc. The gist of the method:
as §1

Test [3] has as its system Fuc(a1-3)[Gal3S(b1-4)]GlcNAc. The gist of the method: as §1
The test system of test [4] is Fuc(a1-3)[GalNAc(b1-4)]GlcNAc. The gist of the method:
as §1

In test [5] the test system is Fuc(a1-3)[Gal3S(b1-4)]GlcNAc6S. The gist of the method: as §1
The subject of test [6] is Fuc(a1-3)[Gal3S(b1-4)]Glc. The gist of the method: as §1
Test [7] has as its system Fuc(a1-3)[Neu5Ac(a2-3)]Gal(b1-4)GlcNAc(b1-3)GalNAc. The gist of the method: as §1

Only a selection was taken, and the strongest signals are over-represented in it overall.

FGF2 (chain not printed): the “glycan array binding signal (z-score)” value in test [1] was determined as 1.79. On to “M-Ficolin Y271F (Homo sapiens) (chain not printed)”, for which the “glycan array binding signal (z-score)” value in test [2] is -0.076. In the case of MBP (Homo sapiens) (chain not printed), the “glycan array binding signal (z-score)” value was -0.195 in test [2], -0.465 in test [3] and -0.264 in test [4]. For the substance “Serum Amyloid P component (Homo sapiens) (chain not printed)”, in test [5], the “glycan array binding signal (z-score)” value was 0.551. Regarding “Thrombomodulin Extracellular (Homo sapiens) (chain not printed)”, in test [6], the “glycan array binding signal (z-score)” value was -0.108. In the case of “Collectin K1 (Homo sapiens) (chain not printed)”, the “glycan array binding signal (z-score)” value in test [7] was found to be 2.98.
